The values that follow come from paper PMC4336329 (PLoS ONE, 2015).

Each structure is given as a SMILES string. Out of some 310,000 compounds screened, about 2,200 (0.71%) showed an effect of 50% or more. Effects have a minus sign here. The list shows a part of the results.

The target in this assay is human ether-à-go-go-related gene (hERG) potassium channel (human, UniProt Q12809). Description: primary screen, population patch clamp on CHO cells stably expressing hERG.
Sequence of human ether-à-go-go-related gene (hERG) potassium channel (Q12809 whole entry, looked up): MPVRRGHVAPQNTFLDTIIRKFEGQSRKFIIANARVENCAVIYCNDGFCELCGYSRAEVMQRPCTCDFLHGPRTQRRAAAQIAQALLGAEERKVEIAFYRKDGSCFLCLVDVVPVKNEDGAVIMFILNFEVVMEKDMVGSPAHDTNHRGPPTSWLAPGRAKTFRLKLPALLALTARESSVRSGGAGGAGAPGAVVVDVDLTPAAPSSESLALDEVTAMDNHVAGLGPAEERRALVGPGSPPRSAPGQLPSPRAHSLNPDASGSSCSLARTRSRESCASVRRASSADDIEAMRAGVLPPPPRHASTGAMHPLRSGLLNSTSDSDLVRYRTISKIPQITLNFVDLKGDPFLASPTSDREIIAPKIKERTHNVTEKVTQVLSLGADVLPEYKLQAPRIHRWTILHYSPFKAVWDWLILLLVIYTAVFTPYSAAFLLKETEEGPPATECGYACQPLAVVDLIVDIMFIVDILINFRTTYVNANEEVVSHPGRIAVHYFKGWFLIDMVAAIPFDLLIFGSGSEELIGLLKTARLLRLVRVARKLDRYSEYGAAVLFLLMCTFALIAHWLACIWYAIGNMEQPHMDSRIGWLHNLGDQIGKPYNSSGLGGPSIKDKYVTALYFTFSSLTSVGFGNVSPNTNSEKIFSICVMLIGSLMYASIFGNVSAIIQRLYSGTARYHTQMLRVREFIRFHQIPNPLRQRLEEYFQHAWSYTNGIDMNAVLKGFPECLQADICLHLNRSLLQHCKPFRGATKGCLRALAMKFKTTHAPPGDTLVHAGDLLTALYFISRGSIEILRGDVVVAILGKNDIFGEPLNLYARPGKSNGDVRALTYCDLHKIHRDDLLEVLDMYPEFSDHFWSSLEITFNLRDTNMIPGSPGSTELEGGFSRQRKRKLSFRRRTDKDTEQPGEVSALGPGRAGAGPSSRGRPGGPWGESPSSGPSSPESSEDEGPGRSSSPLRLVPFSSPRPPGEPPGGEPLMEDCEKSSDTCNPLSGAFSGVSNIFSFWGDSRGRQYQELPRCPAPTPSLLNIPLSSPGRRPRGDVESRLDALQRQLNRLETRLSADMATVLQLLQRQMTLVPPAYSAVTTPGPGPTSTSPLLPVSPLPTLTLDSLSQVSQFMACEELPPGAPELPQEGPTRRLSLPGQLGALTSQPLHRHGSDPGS
Regarding `O=C1CSC(c2ccccc2)N1Cc1ccccn1` (stereo not shown), the “hERG current change (%, negative = inhibition) at 1uM” value was 13.7%.
Next, `CC(=O)N1CCC(=NNC(=O)c2cccs2)CC1`: 1.76%; `CS(=O)(=O)Nc1ccc2c(c1)nc1n2CCOC1`: -0.668%.
The figure for `COc1ccccc1CC(=O)Nc1ccc(-c2noc(COc3ccc(Br)cc3)n2)cc1` is 9.61%; for `COC(=O)c1ccc(COc2cccc3c2CCN(Cc2cccc(C)c2)C3=O)o1` it is 10.9%.
Next, `O=C(CN1CCN(c2ccccn2)CC1)Nc1ccc(F)c(F)c1`: -4.56%; `COc1ccc(-c2nnc(-c3cccs3)o2)cc1OC`: -8.4%.
`O=C(OCC1OC(n2ccc(=O)[nH]c2=O)C(O)C1OC(=O)c1ccccc1)c1ccccc1` (stereo not shown): the “hERG current change (%, negative = inhibition) at 1uM” value was -4.77%.
The figure for `Cc1ccc2c(c1)c(/C=C/c1cc[n+](C)cc1)c(C)n2C.[I-]` is 6.16%; for `CC(=O)Nc1ccc(S(=O)(=O)N2CCN3CCCC3C2)cc1` (stereo not shown) it is 12.9%; for `CC1(O)C(=O)C=C2C=C(c3ccsc3)OC=C2C1=O` (stereo not shown) it is 3.84%.
Next, `COc1cc(Cl)c(C)cc1NC(=O)Cc1cccs1`: 14.7%; `COc1ccccc1N=c1scc(-c2ccc3c(c2)NC(=O)CO3)n1CC1CCCO1` (stereo not shown): -0.659%.
Next, `O=C(CCCN1C(=O)c2ccccc2C1=O)Nc1ccccc1C(=O)N1CCOCC1`: 13.6%; `Cc1c(NC(=S)NC(=O)C2CCCCC2)c(=O)n(-c2ccccc2)n1C`: 13.1%; `O=C(Nc1ccc(F)cc1)Nc1ccc(Cl)cn1`: -0.0419%.
Regarding `Cc1cccc(N2CCN(C(=O)c3noc4c3COc3ccc(C)cc3-4)CC2C)c1` (stereo not shown), the “hERG current change (%, negative = inhibition) at 1uM” value is listed as 5.78%.
The figure for `CCOc1ccc(OCCNC2CCCC2)cc1` is 2.09%; for `Cc1cccc(C(=O)NC2CC3CCCC(C2)N3S(=O)(=O)c2ccccc2)c1` (stereo not shown) it is -63.4%.
The figure for `COc1ccc(C(=O)CSc2nnc(NC(=O)C3CC(=O)N(c4cccc(OC)c4)C3)s2)cc1` (stereo not shown) is 17.6%.
Regarding `CCN1CCN(C(=S)NC(CC(=O)c2ccccc2)c2ccccc2)CC1` (stereo not shown), the “hERG current change (%, negative = inhibition) at 1uM” value is on record as 6.93%.
Consider `COC(=O)Cc1ccc(NC(=S)NCc2ccccc2)cc1`, for which the “hERG current change (%, negative = inhibition) at 1uM” value was found to be 7.84%.
The figure for `O=C(Nc1ccc(S(=O)(=O)Nc2nccs2)cc1)c1cccc(F)c1` is 9.61%.
Next, `Cc1c(O)ccc(-c2n[nH]c(C(=O)O)c2-c2nc3ccccc3s2)c1O`: 7.78%; `CC(C)(C)c1cc(CCC(=O)NCc2ccccn2)cc(C(C)(C)C)c1O`: 7.58%; `C=CCC(NCc1ccccc1)c1ccc(C)o1.Cl` (stereo not shown): 10%.
`Cc1ccc(/C=C2\Oc3c(ccc(O)c3CN3CCN(CCO)CC3)C2=O)cc1`: the “hERG current change (%, negative = inhibition) at 1uM” value is recorded as 6.51%.
Consider `COc1ccccc1N1CCN(C(=O)CCC(=O)O)CC1`, for which the “hERG current change (%, negative = inhibition) at 1uM” value is recorded as 8.72%.
Next, `CCc1ccc(-c2cc(C)no2)cc1S(=O)(=O)N1CCN(c2ccccc2OC)CC1`: 9.66%; `O=S(=O)(CCN1CCOCC1)c1ccc(Cl)cc1`: 10.2%; `CCn1c(-c2cccnc2Cl)nc2ccccc21`: 2.16%.
Next, `O=C(COC(=O)c1ccc(O)cc1O)NC(=O)NCc1ccccc1`: 6.94%; `CCOC(=O)CSC1=C(C#N)C(c2ccco2)C(C(=O)OCc2ccccc2)=C(C)N1` (stereo not shown): -0.541%.
Next, `COc1ccc2nc(C)cc(NCCN3CCOCC3)c2c1`: 12.3%.
Turning to `CCN1C(=O)c2cccc3c(S(=O)(=O)Nc4c(C)n(C)n(-c5ccccc5)c4=O)ccc1c23`, the “hERG current change (%, negative = inhibition) at 1uM” value is reported as 7.85%.
As for `COc1ccc(-c2cc(C(=O)N3CCN(c4ccc(F)cc4)CC3)no2)cc1`, the “hERG current change (%, negative = inhibition) at 1uM” value was 17.1%.
Next, `Cc1ccc(C2=NOC(C)(c3nnc(-c4ccccc4)o3)C2)cc1` (stereo not shown): 2.28%.
Next, `CC(=NCc1ccc2c(c1)OCO2)c1c(O)n(-c2ccccc2)c(=O)[nH]c1=O`: 8.35%; `NS(=O)(=O)c1ccc(CCNC(=O)C(=O)NCC2OCCN2C(=O)c2ccc3c(c2)OCO3)cc1` (stereo not shown): 5.74%; `Cn1cc(/C=N/NC(=O)COc2ccccc2[N+](=O)[O-])c2ccccc21`: 19.2%.
Next, `Cc1noc(C)c1C(=O)Nc1sc2c(c1C(N)=O)CCCCC2`: 5.05%; `COc1ccc(C(=O)C2CCCN(Cc3ccc4nonc4c3)C2)c(OC)c1` (stereo not shown): -10.8%.
For the molecule `CCCCOC(=O)c1cccnc1`, the “hERG current change (%, negative = inhibition) at 1uM” value is 9.4%.
Next, `CCCCN(C(=O)c1cccc(S(=O)(=O)N2CCN(C)CC2)c1)c1c(N)n(CCC)c(=O)[nH]c1=O`: 1.3%; `COc1cccc(CN(C)C(=O)CCNC(=O)c2ccc(Br)cc2)c1`: 0.534%; `O=P(O)(O)CCP(=O)(c1ccccc1)c1ccccc1`: 8.89%.
The figure for `COc1cccc(-c2csc(N3CCN(C(=S)Nc4ccccc4Cl)CC3)n2)c1` is 3.16%.
The figure for `Cc1ccccc1OP(N)(=O)Oc1ccccc1C` is 14.7%; for `O=C(O)CSc1ncccc1C(=O)O` it is -7.34%; for `O=C(O)/C=C\c1ccccc1Oc1cccc(Cl)c1` it is 9.91%.
As to `C=CC(C)(O)CCC=C(C)C` (stereo not shown), the “hERG current change (%, negative = inhibition) at 1uM” value is recorded as 11.9%.
Next, `COc1ccc(CC(=O)N/N=C(\C)CC(=O)Nc2ccc(N(C)C)cc2)cc1`: 15.1%; `CCOc1cc(C(=O)OCC(=O)Nc2ccc(Cl)cn2)ccc1OCC(=O)N1CCOCC1`: 4.02%.
The figure for `Cc1ccc(/C=C2/Sc3ccc(C(=O)NCc4ccccn4)cc3NC2=O)cc1` is 11.4%; for `CCOCCCNC(=O)N1CCOCC1` it is -1.18%; for `COc1ccccc1NC(=O)CSCc1nc2ccccc2[nH]1` it is 3.11%.
The figure for `CC(=O)c1cccc(NC(=O)c2cccc(S(=O)(=O)N3CCOCC3)c2)c1` is 6.33%.
On to `C=CCn1c(O)c(C(C)=NCCN2CCCCC2)c(=O)[nH]c1=O`, for which the “hERG current change (%, negative = inhibition) at 1uM” value turned out to be 8.8%.
The figure for `Cc1c(C(=O)NCC2CCCO2)oc2c(Cl)cccc12` (stereo not shown) is 7.54%; for `OCc1nc2ccccc2n1CCCCOc1ccccc1` it is 5.11%.
Next, `Cc1ccc(NC(=O)C2CCN(C(=O)c3ccc(Cl)cc3)CC2)nc1`: -1.86%.
The figure for `O=C(Oc1cccc(-n2cnnn2)c1)c1ccccc1Cl` is 10.6%; for `CC(OC(=O)c1ccc([N+](=O)[O-])o1)C(=O)NC1CCCCC1C` (stereo not shown) it is 0.21%.
Turning to `CCC(C)NC(=O)COC(=O)Cc1sc(N)nc1-c1ccc(C)cc1` (stereo not shown), the “hERG current change (%, negative = inhibition) at 1uM” value is on record as 6.9%.
Take `Cc1ccc(CCN2CC(C(=O)O)CC2=O)cc1` (stereo not shown): the “hERG current change (%, negative = inhibition) at 1uM” value is reported as -0.364%.
The figure for `COc1cccc(-c2cc(C(=O)Nc3cnn(Cc4ccccc4C)c3)no2)c1` is 6.68%.
Next, `COCCCN=C1NN=C(c2cc(C)n(-c3ccccc3)c2C)CS1`: 0.254%; `CCOP(=O)(OCC)C(NC(=O)/C=C/c1ccc(OC)cc1)c1ccccc1` (stereo not shown): 15.9%.
Next, `CC(C)(C#CC(=O)[O-])OOC(c1ccccc1)(c1ccccc1)c1ccccc1.[Na+]`: 11.9%; `O=C(Nc1nnc(-c2ccc(F)cc2)o1)c1ccc(S(=O)(=O)N2CCOCC2)cc1`: 6.82%.
As to `O=C(c1cc2ccccc2s1)N1CCN(c2ccccn2)CC1`, the “hERG current change (%, negative = inhibition) at 1uM” value is 2.78%.
The figure for `Fc1ccccc1Cn1nnc2c(-n3ccnc3)ncnc21` is 8.45%; for `CCOC(=O)Cn1nc(C)cc1NC(=O)c1cccnc1` it is 6%.
Turning to `Cc1ccc([N+](=O)[O-])cc1NC(=S)NCCc1ccccc1`, the “hERG current change (%, negative = inhibition) at 1uM” value was determined as 13.3%.
The figure for `COc1cc([N+](=O)[O-])cc(/C=N/NC(=O)C(O)(c2ccccc2)c2ccccc2)c1O` is 6.71%; for `COc1cc(S(=O)(=O)N2CCN(C)CC2)ccc1Cl` it is 14.8%.
As to `CC1CN(c2nc3ccccn3c(=O)c2/C=C(\C#N)C(N)=O)CC(C)O1` (stereo not shown), the “hERG current change (%, negative = inhibition) at 1uM” value stood at 13.8%.
The figure for `CCOC(=O)Cn1nc(-c2ccccc2)ccc1=O` is -22%; for `O=C(c1ccc(CS(=O)Cc2ccccc2Cl)o1)N1CCN(c2ccccn2)CC1` (stereo not shown) it is 6.6%; for `Cc1ccc(S(=O)(=O)n2[nH]c(=O)c(CCO)c2C)cc1` it is 0.0859%.
Next, `O=C(NC12CC3CC(CC(C3)C1)C2)N1CCN(C2CCCCC2)CC1`: 8.1%.
Turning to `COc1cc(/C=N/NC(=O)CCN2CCN(Cc3ccccc3)CC2)cc(OC)c1OC`, the “hERG current change (%, negative = inhibition) at 1uM” value was found to be 2.23%.
The figure for `CSCCC(NC(=O)COc1ccccc1)C(=O)NCC1COc2ccccc2O1` (stereo not shown) is 12.5%; for `O=C(Nc1cccnc1)c1cc(-c2ccc(Br)cc2)nc2ccccc12` it is 10.7%; for `CS(=O)(=O)N(CC(=O)Nc1ccc(C(N)=O)cc1)C1CCCCC1` it is 7.54%.
As to `COc1ccc(S(=O)(=O)NCc2cccnc2)cc1NC(=O)c1ccccc1`, the “hERG current change (%, negative = inhibition) at 1uM” value came to 14.2%.
Turning to `COc1ccc(Cl)cc1N(C(C)=O)c1nc(C)cc(C)c1C#N`, the “hERG current change (%, negative = inhibition) at 1uM” value amounted to 9.88%.
Next, `CCOc1ccc(-c2cccc(NS(=O)(=O)c3ccccc3[N+](=O)[O-])c2)nn1`: 0.782%.
The figure for `CCOC(=O)/C=C/C(=O)OCC(=O)Nc1ccc([N+](=O)[O-])cc1` is 13.9%; for `CCCCc1ccc(NC(=O)C2CCN(S(C)(=O)=O)CC2)cc1` it is 1.72%; for `COc1cccc(NC(=O)C(=O)NCC2CCCN2S(=O)(=O)c2ccccc2)c1` (stereo not shown) it is 9.99%.
